# Assay results from the supplement of paper PMC11417369.
# ± gives the standard deviation of the averaged measurements. This is one part of the list.
# Tested on: PfAP2-EXP AP2 domain (GST-tagged)
# Test: gcPBM binding intensity (ln(normalized median fluorescence intensity)); higher = stronger DNA binding
# Method in brief: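 Probes on an Agilent 4 × 180k array were primer-extended, double-stranded and 36 bp long, taken from intergenic genomic regions, with negative controls added. GST-tagged P. falciparum DNA-binding domains from E. coli, about 25 μg on average, were applied to the array for 1 h in 1× PBS containing 1% milk, 0.2 mg/ml BSA, 0.5% salmon testes DNA and 0.03% Triton X-100. Binding intensity, obtained after Alexa488 anti-GST antibody detection and a 488 nm scan, is the highest Masliner-normalised natural-log median intensity across replicate spots of either probe orientation.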
row,Sequence,gcPBM binding intensity (ln)
1,CGTTATATATTTTATAGTACTTTTTGTAAATTTTTT [XGTACX_site7682],8.6 ± 0.38
2,AACATTTTAAAATAATGTACTTGAAAAAAAAACTAC [XGTACX_site8894],8.73 ± 0.49
3,TGTTCTAATATTTGTTGTACGTTTACGTTTCTCTCT [XGTACX_site18],8.88 ± 0.45
4,CATATAAATAAATATACATGCATACATACATATATA [TGCATGCA_site713],8.51 ± 0.23
5,TATTTAAGAGTATGAACACACATCATACCCATATAA [CACACA_site5911],8.31 ± 0.47
6,ATTTAACCAAATAATATATTTAAAAAATAGTCACAT [CACACA_negctrl_site274],8.36 ± 0.39
7,TTAATTTATGTTAATGGTACGTAAATGCATTTATTT [XGTACX_site3002],8.51 ± 0.31
8,TATAATATATGAAAAAGTACAAATATTTCGATGGTC [XGTACX_site129],8.66 ± 0.32
9,TTTTATAATTTGAGAACATGCAACATAAATATAAAG [TGCATGCA_site965],9.05 ± 0.41
10,TTTATTAAATATATATGTACATATCAAAATGTATAA [XGTACX_site3181],8.47 ± 0.35
11,TTTTTTTTCTATTGAGCACACATATCACGATTAGTA [CACACA_site7992],8.56 ± 0.35
12,GTTAAACATCTTCTGTGATATGTTAGAATATTATTT [CACACA_negctrl_site687],8.35 ± 0.31
13,TATTTCACAAACCTTACATGCGGTTTATTTATATAT [TGCATGCA_site123],8.94 ± 0.47
14,ATAATTTATATCATTACACACATTTTTTATATTTTT [CACACA_site3450],8.6 ± 0.36
15,TTTTTGAATGTTTGCACACAAATCTCATAATTTTAG [CACACA_site357],8.38 ± 0.16
16,TAGTTACATAAAATATGTACGTATAATTTTTTTATT [XGTACX_site3847],8.29 ± 0.16
17,ATATTTTCAGTTCTCCATTATGTTCCCATTATTTTT [CACACA_negctrl_site990],9.12 ± 0.46
18,CATGAATATTTTAATGTGCACATTTATCATTATATG,8.84 ± 0.42
19,CCAAACTAAATGTACACACATACATAAATATAAATA [CACACA_site1141],8.71 ± 0.57
20,ATGTAATAAATATACACACACAAATATATATATATA [CACACA_site2395],10 ± 0.42
21,ACCTATGTATATTATACACACTCCAAACTATTCTTT [CACACA_site6939],8.89 ± 0.43
22,ATATTATATAACTTTTGTACGAACTATTTTATATAT [XGTACX_site6],8.7 ± 0.54
23,AAAAAAAAATATATATGTACATATGTATAATAAAAA [XGTACX_site2110],8.63 ± 0.39
24,TTTAGAGAAGTCAAGTGTACATATAAAATAATTCAC [XGTACX_site4997],8.55 ± 0.3
25,ATAAAAATAAATAAATTATATAAATGTAATATGAAA [GTGCAC_negctrl_site663],8.44 ± 0.37
